Data reported in PubChem BioAssay AID504832 (National Center for Advancing Translational Sciences (NCATS), 2011).
Several values for one entry are separate records, joined by “and”; a condition that tells them apart may be missing. Identical values can stand only once. Among all 310,000 compounds or so, about 18,000 (5.8%) were called active. The inconclusive results got no clear call from the source; some entries with a clear call stand among them for comparison. Calls follow the shape of the dose curve; as a rule, active = well fitted inhibition curve with a large enough effect; inconclusive = small, poorly fitted or top-dose-only effect, or another doubt; inactive = no such curve, though single readings can be large or run the other way. Potencies of inconclusive entries are left out as doubtful fits.

Assay: Primary qHTS for delayed death inhibitors of the malarial parasite plastid, 48 hour incubation
Details: P. falciparum luciferase growth in erythrocytes; series mostly up to 28.7 µM; activity change, negative = inhibition: at the top concentration
Summary of the method: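 Luminescence readout; reporter = integrated firefly luciferase in P. falciparum. RBC culture at 2% hematocrit, 0.1% parasitemia final, 37 C/5% CO2; decreased signal taken as growth inhibition.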
% is scaled to controls: 0 for no effect and ±100 for the full control effect; potency is read from the fitted curve at half-maximal effect; tags tell the direction and shape of the fitted curve.

For `Cc1cc(C)c(S(=O)(=O)NCC2CCC(C(=O)NCCCN3CCOCC3)CC2)c(C)c1` (configuration not stated), which Potency is on record?
Its Potency is inconclusive [inhibitor, partial curve].

Which Potency does the source give for `CCOc1ccc(C2C(C#N)=C(N)SC(N)=C2C#N)cc1OCC` here?
The Potency was inconclusive [inhibitor, single point].

With `CC(C)C(=O)N1CCC(n2nccc2NC(=O)CCc2ccccc2)CC1` as the compound, how does the “activity change, negative = inhibition” value read?
Its value is inactive: -6.43%.

Which Potency does the source give for `CCN(CC)S(=O)(=O)c1cc(NC(=O)CCNC(=O)c2ccccc2Cl)ccc1C` here?
Its Potency is inconclusive [inhibitor, partial curve, poor fit].

For `CCN(CCO)c1ncnc2c1sc1nc(CC(C)C)c3c(c12)CC(C)(C)OC3`, which “activity change, negative = inhibition” value is on record?
The value was inactive: 41.8%.

For `CCN(CC)CCCC(C)NC(=O)c1c(NC(=O)c2ccccc2)sc2c1CCCC2` (configuration not stated), which Potency is on record?
The Potency was inconclusive [inhibitor, single point].

For `COc1ccccc1CNC(=O)c1csc(Cc2ccc(Cl)cc2)n1`, which Potency is on record?
The Potency was inconclusive [inhibitor, single point].

Which Potency does the source give for `COC(=O)c1cc2ccsc2n1CC(=O)N1CCCc2ccccc21` here?
Its Potency is inconclusive [inhibitor, single point].

For `Fc1cc(NC(=S)NCc2ccc(CNC(=S)Nc3ccc(Cl)c(F)c3)cc2)ccc1Cl`, which Potency is on record?
Its Potency is inconclusive [inhibitor, single point].

Which Potency does the source give for `CCCn1c(=O)c2ccccc2n2c(SCCOc3ccccc3)nnc12` here?
Its Potency is inconclusive [inhibitor, single point].

With `Cc1ccc(CNC(=O)C2COc3ccccc3O2)cc1` (configuration not stated) as the compound, how does the “activity change, negative = inhibition” value read?
The value was inactive: 25.6%.

With `CC(C)Oc1cc(NC(=O)CSCC(=O)Nc2cccc(C(F)(F)F)c2)c(Cl)cc1Cl` as the compound, how does the “activity change, negative = inhibition” value read?
Its value is inactive: -10.2%.

With `Cc1ccc(Nc2nc(N3CCN(C)CC3)nc(N)c2[N+](=O)[O-])cc1C` as the compound, how does the Potency read?
Its Potency is inconclusive [inhibitor, single point].

For `c1cc2c(cc1-c1csc(NNC3=NCCCCC3)n1)OCCO2`, which Potency is on record?
The Potency was inconclusive [inhibitor, single point].

With `O=C(CCN1C(=O)/C(=C\c2cccc(Br)c2)SC1=S)N1CCOCC1` as the compound, how does the “activity change, negative = inhibition” value read?
The value was inactive: 0.537%.

With `N#CC1(NC(=O)COC(=O)C23CC4CC(CC(O)(C4)C2)C3)CCCCC1` as the compound, how does the “activity change, negative = inhibition” value read?
The value was inactive: 10.3%.

For `CCCCCCSc1cccc(-c2nc3cc(C)ccn3c2NCc2ccccc2)c1`, which Potency is on record?
Its Potency is inconclusive [inhibitor, single point].

For `Cc1c(Cl)cccc1-n1nnnc1-c1cccs1`, which Potency is on record?
Its Potency is inconclusive [inhibitor, partial curve, poor fit].

Which “activity change, negative = inhibition” value does the source give for `O=C(Nc1sc2c(c1C(=O)O)CCCCC2)c1cccnc1` here?
The value was inactive: 17%.

Which Potency does the source give for `CCc1ccc(N2C(=O)c3sc4nnc(C)c(=O)n4c3C2=O)cc1` here?
Its Potency is inconclusive [inhibitor, full curve].

With `CCc1nc(N2CCN(Cc3ccc4c(c3)OCO4)CC2)c2oc3ccccc3c2n1` as the compound, how does the Potency read?
The Potency was inconclusive [inhibitor, full curve, poor fit].

Which Potency does the source give for `O=C(NCC1(N2CCOCC2)CCCCC1)c1ccc(S(=O)(=O)Nc2ccccc2F)cc1` here?
Its Potency is inconclusive [inhibitor, partial curve, poor fit].

For `O=c1oc2ccccc2c(NC2CCCCC2)c1NS(=O)(=O)c1ccc(F)c(Cl)c1`, which “activity change, negative = inhibition” value is on record?
The value was inactive: 15.3%.

Which Potency does the source give for `CCN(CC)CCSc1nnc(Nc2ccccc2)n1-c1ccccc1` here?
The Potency was inconclusive [inhibitor, full curve, poor fit].

For `O=C(Cn1cnc2scc(-c3cccc([N+](=O)[O-])c3)c2c1=O)NCc1ccco1`, which “activity change, negative = inhibition” value is on record?
The value was inactive: 8.42%.

Which “activity change, negative = inhibition” value does the source give for `Cc1ccc(S(=O)(=O)N(CC(=O)O)c2ccc(Cl)c(C(F)(F)F)c2)cc1` here?
The value was inactive: -1.6%.

With `COC(=O)c1ccccc1S(=O)(=O)N1CCC(C(=O)OCc2cccc(OC)c2OC)CC1` as the compound, how does the Potency read?
The Potency was inconclusive [inhibitor, single point].

For `COc1ccc(NC(=O)CCCN2C(=O)/C(=C\c3ccco3)SC2=S)cc1`, which “activity change, negative = inhibition” value is on record?
Its value is inactive: 8.02%.

Which Potency does the source give for `CCOc1ccc(S(=O)(=O)N2CCC(C(=O)NCCc3ccc(OC)c(OC)c3)CC2)cc1` here?
The Potency was inconclusive [inhibitor, single point].

Which Potency does the source give for `Cc1ccc(Nc2nc3ccccc3n3cnnc23)cc1Cl` here?
Its Potency is inconclusive [inhibitor, single point].

With `COc1ccc(C(=O)c2c(C(F)(F)F)oc3c2C(=O)c2ccccc2C3=O)cc1` as the compound, how does the Potency read?
The Potency was active: 0.104 µM.

With `CCC(=O)Nc1ccccc1Nc1cc(C#N)c(C#N)cc1[N+](=O)[O-]` as the compound, how does the Potency read?
Its Potency is inconclusive [inhibitor, partial curve, poor fit].

Which Potency does the source give for `Cc1cc(C)nc(SCSc2nc(C)cc(C)n2)n1` here?
The Potency was inconclusive [inhibitor, full curve, poor fit].

For `Cc1sc2nc(COC(=O)c3cccc(S(=O)(=O)N(C)c4ccccc4)c3)[nH]c(=O)c2c1C`, which Potency is on record?
Its Potency is inconclusive [inhibitor, single point].

For `O=C(O)c1cccc(NC(=S)NC(NC(=O)c2ccco2)C(Cl)(Cl)Cl)c1` (configuration not stated), which Potency is on record?
Its Potency is inconclusive [inhibitor, single point].

With `O=C(NCc1cccnc1)C12CC3CC(CC(Cl)(C3)C1)C2` as the compound, how does the Potency read?
Its Potency is inconclusive [inhibitor, partial curve].

With `O=C(CN1C(=O)NC2(CCOc3ccccc32)C1=O)c1ccc(F)c(F)c1` (configuration not stated) as the compound, how does the Potency read?
The Potency was inconclusive [inhibitor, single point].

Which Potency does the source give for `COc1ccc(CCN(C)C(=O)c2ccc(C)c(S(=O)(=O)N3CCCCC3)c2)cc1OC` here?
The Potency was inconclusive [inhibitor, partial curve, poor fit].

Which Potency does the source give for `CC(C)CC(=O)Nc1ccc(C(=O)NNC(=S)NC(=O)C2CCCCC2)cc1` here?
Its Potency is inconclusive [inhibitor, single point].

With `Cc1cc(C)cc(NC(=S)NCc2ccc3[nH]c4c(c3c2)CCCC4)c1` as the compound, how does the Potency read?
The Potency was inconclusive [inhibitor, partial curve, poor fit].

Which Potency does the source give for `CC(=O)NC(c1ccco1)c1cc(F)c2cccnc2c1O` (configuration not stated) here?
Its Potency is active: 2.94 µM and active: 4.15 µM.

For `COc1ccc(NC(=O)c2cc([N+](=O)[O-])ccc2N2CCN(C)CC2)cc1`, which “activity change, negative = inhibition” value is on record?
The value was inactive: 33.6%.

Which “activity change, negative = inhibition” value does the source give for `O=C(CN1CCCC1)N1c2ccccc2Sc2ccc(Cl)cc21` here?
The value was inactive: -15.6%.

Which Potency does the source give for `CN1CCN(Cc2c(C(=O)N3CCc4ccccc4C3)nc3ccc(Cl)cn23)CC1` here?
Its Potency is inconclusive [inhibitor, partial curve, poor fit].

For `O=C(CCCCCN1C(=O)c2cccc3cccc(c23)C1=O)NC1CCS(=O)(=O)C1` (configuration not stated), which Potency is on record?
The Potency was inconclusive [inhibitor, partial curve, poor fit].

With `CC(C)n1c(Nc2ccccc2)nc2ccccc21` as the compound, how does the “activity change, negative = inhibition” value read?
The value was inactive: -5.53%.

Which Potency does the source give for `COc1ccccc1N1CCc2c(C)nc3c(OC)cccc3c21` here?
Its Potency is active: 13.1 µM.

With `Cc1ccc2nc(SCc3nc4cc(Cl)ccc4c(=O)[nH]3)[nH]c2c1` as the compound, how does the Potency read?
The Potency was inconclusive [inhibitor, partial curve].

For `COC1CC(=C(c2cccs2)c2cccs2)C[N+](C)(C)C1` (configuration not stated), which Potency is on record?
The Potency was active: 4.78 µM.

For `COc1ccc(OC)c(NC(=O)CSc2nnc(Cc3cccn3C)n2CCc2ccccc2)c1`, which Potency is on record?
Its Potency is active: 5.22 µM.

Which Potency does the source give for `Cc1cccc2cc(CN(CCCO)C(=O)Nc3ccccc3Cl)c(=O)[nH]c12` here?
The Potency was inconclusive [inhibitor, single point].

For `COc1ccc(N2COC3c4cccc5cccc(c45)C32)cc1` (configuration not stated), which Potency is on record?
The Potency was inconclusive [inhibitor, single point].

For `CCN(CC)CCCNC1=C(Cl)C(=O)c2ccccc2C1=O`, which Potency is on record?
The Potency was inconclusive [inhibitor, single point].

For `COc1ccc(NC(=O)Cn2ncn3c(cc4ccccc43)c2=O)c(OC)c1OC`, which Potency is on record?
The Potency was active: 10.4 µM.

With `Cc1ccc(NCC(=O)c2ccccc2)cc1Cl` as the compound, how does the Potency read?
The Potency was inconclusive [inhibitor, single point].

For `Cc1noc(C)c1COC(=O)C(c1ccccc1)c1ccccc1`, which “activity change, negative = inhibition” value is on record?
The value was inactive: 1.29%.

Which Potency does the source give for `COc1ccc(C(=O)CSc2nnc(CN3CCCCC3)n2-c2ccc(Cl)cc2)cc1OC` here?
Its Potency is inconclusive [inhibitor, single point].

Which Potency does the source give for `CC1CCc2c(C(=O)N3CCN(S(=O)(=O)c4cccs4)CC3)csc2C1` (configuration not stated) here?
The Potency was inconclusive [inhibitor, single point].

With `CC(C)c1ccc(-c2nn(-c3ccccc3)cc2C(=O)NCC2CCCO2)cc1` (configuration not stated) as the compound, how does the Potency read?
The Potency was inconclusive [inhibitor, single point].

For `COc1ccccc1Oc1cn[nH]c1-c1ccc(O)cc1O`, which Potency is on record?
Its Potency is inconclusive [inhibitor, partial curve].

Which Potency does the source give for `O=C(Nc1ccccc1SCC1CSc2nc3ccccc3c(=O)n21)c1ccccc1` (configuration not stated) here?
Its Potency is inconclusive [inhibitor, single point].

With `COc1ccccc1N(CC(=O)Nc1ccc2c(c1)OCCO2)S(=O)(=O)c1ccc(C)cc1` as the compound, how does the Potency read?
The Potency was inconclusive [inhibitor, single point].

Which Potency does the source give for `CCc1ccc(NC(=O)COc2ccc(F)cc2C(=O)c2cnn(-c3ccccc3)c2)cc1` here?
Its Potency is inconclusive [inhibitor, single point].

With `COC(=O)c1c(C)c(C)nc(N)c1C#N` as the compound, how does the Potency read?
Its Potency is inconclusive [inhibitor, partial curve, poor fit].

For `O=C1NC(=O)/C(=C\c2ccc(Br)o2)S1`, which “activity change, negative = inhibition” value is on record?
Its value is inactive: 30.9%.

Which Potency does the source give for `CCc1cc(=O)oc2cc(C)cc(OC(C)C(=O)NCCCN3CCCC3=O)c12` (configuration not stated) here?
Its Potency is inconclusive [inhibitor, partial curve, poor fit].

Which Potency does the source give for `Cc1ccccc1NC(=S)N/N=C/C(C)c1ccccc1` (configuration not stated) here?
Its Potency is inconclusive [inhibitor, partial curve].
